This note sets out measurements from PubChem BioAssay AID488969 (Vanderbilt High Throughput Screening Facility, 2010).

Each structure is given as a SMILES string. Whole data set: some 110,000 compounds, median “z-score” near -0.1, cut for the highest 2% near 2. This is one part of the list. Calls of active or inactive are those of the source.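 Rule for the calls: active = z-score in the third read window above 3 or below -3; inactive = the rest.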

The target in this experiment is Metabotropic glutamate receptor 8 (Rattus norvegicus) (UniProt P70579). The experiment in a line: mGluR8 Gi/Go-coupled signaling modulation – cell-based, rat, thallium flux, HTS, primary screen (AID 488969). Conditions: HEK293 rat mGluR8, GIRK (G protein-gated inwardly rectifying potassium channel) thallium flux, FluoZin2; at 10 µM; stronger effect = higher value; submaximal glutamate (EC20) added with thallium.
Sequence of UniProt P70579 (P70579 whole entry, looked up): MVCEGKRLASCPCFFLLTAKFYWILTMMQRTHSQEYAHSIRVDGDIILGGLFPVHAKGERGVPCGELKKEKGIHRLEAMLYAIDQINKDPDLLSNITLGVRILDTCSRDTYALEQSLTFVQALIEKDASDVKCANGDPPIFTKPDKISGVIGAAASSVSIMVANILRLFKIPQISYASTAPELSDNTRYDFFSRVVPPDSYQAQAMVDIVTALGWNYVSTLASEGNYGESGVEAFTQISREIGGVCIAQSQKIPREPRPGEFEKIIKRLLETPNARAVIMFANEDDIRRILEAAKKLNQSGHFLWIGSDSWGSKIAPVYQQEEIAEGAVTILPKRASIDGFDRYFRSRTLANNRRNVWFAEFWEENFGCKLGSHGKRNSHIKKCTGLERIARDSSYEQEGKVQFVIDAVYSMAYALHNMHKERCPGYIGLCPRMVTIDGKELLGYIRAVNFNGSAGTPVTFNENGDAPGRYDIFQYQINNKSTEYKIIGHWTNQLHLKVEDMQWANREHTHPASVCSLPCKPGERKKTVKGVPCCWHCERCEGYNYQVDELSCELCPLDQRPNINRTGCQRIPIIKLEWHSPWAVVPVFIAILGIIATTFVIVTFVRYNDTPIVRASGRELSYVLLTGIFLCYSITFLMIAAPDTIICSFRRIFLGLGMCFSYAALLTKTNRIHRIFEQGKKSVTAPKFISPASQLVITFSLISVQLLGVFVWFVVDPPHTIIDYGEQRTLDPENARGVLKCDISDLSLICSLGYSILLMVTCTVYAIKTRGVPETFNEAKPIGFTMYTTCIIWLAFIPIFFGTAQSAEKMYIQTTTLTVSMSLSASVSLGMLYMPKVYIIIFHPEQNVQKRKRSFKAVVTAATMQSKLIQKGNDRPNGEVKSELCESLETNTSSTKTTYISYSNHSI
`COC(=O)C1=C(C)NC2=C(C1c1ccc(O)cc1)S(=O)(=O)c1ccccc12` (stereo not given) showed a z-score of -0.538.

Consider `CC(Oc1ccc(Cl)cc1)c1ccnn1S(=O)(=O)c1ccccc1` (stereo not given), for which the z-score is -0.504.

Regarding `CC1=C[C@H]2Cc3cc(C)cc(C)c3S(=O)(=O)[C@@H]2C=C1`, the z-score is -0.241.

For `COc1ccc(NS(=O)(=O)c2cc(NC(=O)CNC(=O)c3ccc(C)s3)ccc2Cl)cc1`, the z-score stood at 0.551.

`N#Cc1nc(Cc2cccc3ccccc23)oc1NCc1ccco1` displayed a z-score of 0.86.

`CCN(CC)C(=O)C(=O)N/N=C/c1ccc(C(=O)OC)cc1` had a z-score of -0.309.

With `CCOC(=O)c1ccc(NC(=O)COc2ccc(S(=O)(=O)NC(C)C)cc2)cc1`, the z-score is -0.075.

The compound `CN(C(=O)/C=C/c1ccccc1)C1CCS(=O)(=O)C1` (stereo not given) came in with a z-score of -0.119.

In turn, `COn1cnnc1-c1ccccc1` came in with a z-score of -0.212.

As for `Cc1nc2ccc(S(=O)(=O)NCC(=O)N3CCCC(C)C3)cc2s1` (stereo not given), the z-score was -0.296.

Consider `c1ccc2nc(-c3ccc(N4CCOCC4)cc3)ccc2c1`, for which the z-score came to 0.0936.

`O=C(OCC(=O)N1CCN(C(=O)c2ccco2)CC1)c1cc(-c2ccco2)nc2ccccc12` returned a z-score of -1.33.

As for `CCC(=O)n1nc(-c2ccccc2)nc1SCC(=O)Nc1ccc(C)cc1`, the z-score is 0.0847.

Regarding `CC(=O)Nc1nonc1-c1nc2ccccc2n1CCC(C)C`, the z-score is 0.00782.

`Cc1cccc2nc(C(F)(F)F)nc(=O)n12` showed a z-score of -0.0106.

In turn, `COc1ccccc1NC(=O)CN(Cc1ccco1)C(=O)c1cccs1` showed a z-score of 0.85.

Compound `CCOC(=O)Cc1cc(=O)[nH]c(/N=C(/NC(=O)c2ccccc2)Nc2ccccc2C(F)(F)F)n1` registered a z-score of -0.154.

Regarding `CC(=O)Nc1ccc(Oc2ncccn2)cc1`, the z-score was active: 7.84.

For `Cc1ccc(C(C(=O)Nc2ccc3c(c2)OCO3)N(C)C(=O)/C=C\c2ccc3c(c2)OCO3)cc1` (stereo not given), the z-score is -0.403.

Compound `Cn1c(CC(=O)NCCO)c(Sc2ccccc2)c2ccccc21` showed a z-score of -0.429.

In turn, `CC(C)NC(=S)Nc1cccc2cnccc12` came in with a z-score of -0.271.

In turn, `Cc1cc(C(F)(F)F)nc(Nc2nc(C)c3ccccc3n2)n1` came in with a z-score of -0.0567.

In the case of `O=C(c1ccco1)N1CCN(c2ncnc3c2[nH]c2ccccc23)CC1`, the z-score came to 0.737.

With `CCOC(=O)C1=NN(C(=O)c2ccc(C)cc2)C(O)(c2ccc(Cl)cc2)C1` (stereo not given), the z-score is active: 10.4.

Compound `CCOC(=O)N1CCN(C(=O)C2CCN(S(=O)(=O)c3ccccc3)CC2)CC1` showed a z-score of -0.151.

`O=C1C(Cl)=C(N2CCOCC2)C(=O)N1c1ccccc1`: the z-score worked out at 0.0319.

Regarding `COc1ccc(C(=O)NC(=S)NNC(=O)c2c(-c3ccccc3)noc2C)cc1`, the z-score was found to be 0.757.

In the case of `Cc1ccc(S(=O)(=O)NCCC(=O)Nc2ccc(C)cc2C(=O)c2ccccc2)cc1`, the z-score was -0.4.

As for `O=c1[nH]ncn1-c1ccccc1C(F)(F)F`, the z-score turned out to be 0.261.

`O=C(NCC(=O)N(Cc1cccs1)C(C(=O)NC1CCCCC1)c1ccncc1)c1ccco1` (stereo not given) had a z-score of -0.208.

Consider `O=c1cc(-c2ccccc2)[nH]c2nc3ccccc3n12`, for which the z-score is -0.423.

For the compound `CC(NC(=O)c1ccc(Br)s1)C1CCCO1` (stereo not given), the z-score is -0.504.

With `COc1ccccc1NC(=O)CSc1nc(O)c(Cc2ccccc2)c(=O)[nH]1`, the z-score came out at 0.381.

`CCOC(=O)CSc1nnc(CNC(=O)c2ccc(OC)c(OC)c2)n1C` had a z-score of -0.459.

Take `O=C(ON=C1CCN(S(=O)(=O)c2ccccc2)CC1)c1ccccc1`: the z-score was -0.044.

In turn, `N#Cc1c(NC(=O)C2CC(c3ccccc3Cl)=NO2)sc2c1CCC2` (stereo not given) yielded a z-score of -0.539.

Turning to `O=C(c1ccc(Br)o1)N1CCN=C1SCc1cccc(F)c1`, the z-score was -0.798.

For the compound `O=C(NCc1ccc(F)cc1)c1cc(S(=O)(=O)N2CCOCC2)ccc1F`, the z-score was found to be 0.0221.

For `CCOC(=O)c1c(NC(=O)COc2cccc3c2CCN(Cc2ccc(F)cc2)C3=O)sc2c1CCC2`, the z-score is -0.11.

The compound `CN(Cc1ccccc1)C(=O)CCNC(=O)Cn1cnc2ccccc2c1=O` had a z-score of 1.04.

Turning to `O=c1c(-c2nc3ccccc3s2)cccn1Cc1ccc(Cl)c(Cl)c1`, the z-score worked out at 0.0207.

Regarding `CC(C)CCn1c(SCC(N)=O)nc2c1c(=O)n(C)c(=O)n2C`, the z-score is -0.0328.

`Nc1nnc(SCC(=O)N2CCN(c3cccc(Cl)c3)CC2)n1-c1ccccc1` registered a z-score of -0.234.

As to `Oc1ccccc1N=Cc1ccc[nH]1`, the z-score was determined as 0.222.

Turning to `Cc1ccc(N2C(=O)c3ccccc3C2Nc2ccccc2F)nc1` (stereo not given), the z-score is -1.12.

On to `CCOc1ccccc1/C=N/Nc1ccccc1[N+](=O)[O-]`, for which the z-score is -0.0673.

`CCC(SC1=Nc2ccccc2C2=NC(CC(C)C)C(=O)N12)C(=O)Nc1ccc2c(c1)OCO2` (stereo not given) returned a z-score of -0.407.

On to `CCN(CC)c1nc2ccccc2n2cnnc12`, for which the z-score was -0.635.

On to `O=C(O)CCCCCN1C(=O)C2CCCCC2C1=O` (stereo not given), for which the z-score was -0.176.

`O=C(c1cnc(-c2ccc(Cl)cc2)s1)c1ccc(Cl)cc1Cl` showed a z-score of -0.046.

On to `COc1ccc(C2C=C(c3ccc(C)c(C)c3)Nc3ncnn32)c(OC)c1OC` (stereo not given), for which the z-score was -0.205.

Consider `CC(C)(C)C1=NN(C(=O)c2ccccc2)C(O)(C(C)(C)C)C1` (stereo not given), for which the z-score was -0.79.

Turning to `CC(C)[C@H](NC(=O)NCCc1ccc(F)cc1)C(=O)O`, the z-score was -0.139.

Compound `CC(NC(=O)Cn1cnc2c1c(=O)n(C)c(=O)n2C)c1ccccc1` (stereo not given) came in with a z-score of -0.024.

Take `Brc1ccccc1-c1nnc2sc(Cc3ccccc3)nn12`: the z-score is -2.32.

As for `C=CCOc1c(CNc2ccc(C(=O)O)cc2)cccc1OCC`, the z-score is -0.161.

For `COc1ccc(S(=O)(=O)NC(C)C(=O)Nc2ccccc2C(F)(F)F)cc1` (stereo not given), the z-score was -0.501.

The compound `COc1ccccc1-n1c(SCC(=O)Nc2ccc(C)cc2)nc(O)cc1=O` displayed a z-score of -0.181.

As for `O=C(NCCN=C1NS(=O)(=O)c2ccccc21)c1ccco1`, the z-score was -0.129.

`CC(=O)OCCNc1cc(Sc2nc3ccccc3[nH]2)c2nonc2c1[N+](=O)[O-]` had a z-score of -0.363.

As to `Nc1c(C(O)(C(F)(F)F)C(F)(F)F)cc(C(O)(C(F)(F)F)C(F)(F)F)c2ccccc12`, the z-score worked out at 0.066.

In turn, `Cc1cc(C)cc(N(CC(=O)N2CCC(C)CC2)S(=O)(=O)c2ccccc2)c1` yielded a z-score of -0.168.

`CC(C)c1ccc(NC(=O)c2ccc(Br)o2)cc1` had a z-score of -1.18.

In turn, `Cc1ccc(OCc2nnc(SCC(=O)c3cccs3)n2-c2ccccc2)cc1C` gave a z-score of 0.316.

In turn, `Nc1nnc(SCC(=O)c2ccccc2)s1` returned a z-score of -0.265.

In turn, `Cc1nn(C)c(C)c1/C=C/C(=O)c1cccs1` gave a z-score of -0.104.

For `COc1cc(/C=C(/C#N)c2ccccc2)ccc1Oc1ccc([N+](=O)[O-])cn1`, the z-score is -0.141.

Consider `Cc1ccc2c(CC(=O)OCc3nc(N)nc(Nc4ccccc4C)n3)coc2c1`, for which the z-score was found to be 0.33.

Regarding `CCOc1ccc(NS(=O)(=O)c2cc(NC(=O)CCS(=O)(=O)c3ccc(C)cc3)ccc2OC)cc1`, the z-score was -0.103.

On to `COc1ccc(NC(=O)CC2C(=O)N(c3ccc(Cl)cc3)C(=S)N2CCc2ccncc2)cc1` (stereo not given), for which the z-score was -0.182.
